Consider 25 compounds from the supplement of paper PMC4604168 (melanoma cell lines).

This is one part of the list. Repeats are few or missing, and single values can be far off.

Some test systems named below: WM115; WM1716; WM1745; WM3526; WM3619; WM451Lu.
Common to all, as to test: cell count relative to DMSO control; melanoma cells; higher = more viable cells
What all share (details): library dose: low library concentration; 72 h
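Note: cell number obtained by counting DAPI-stained nuclei in high-throughput microscope images with image analysis software, screen run in 1,536-well plates.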

On to `Cc1cn(-c2cc(NC(=O)c3ccc(C)c(Nc4nccc(-c5cccnc5)n4)c3)cc(C(F)(F)F)c2)cn1` [nilotinib] + Cc1cc([N+](=O)[O-])ccc1NS(=O)(=O)c1cc(Cl)ccc1Cl [FH535] (first compound 0.2 µM, partner dose 1 µM), for which the cell count in the assay with WM115 was found to be 89.3%; in the assay with WM1716, 100%; in the assay on WM1745 it was 99%; with WM3526 it was 111%; in the assay on WM3619, 104%; in the assay with WM451Lu, 102%.
On to `Cc1cn(-c2cc(NC(=O)c3ccc(C)c(Nc4nccc(-c5cccnc5)n4)c3)cc(C(F)(F)F)c2)cn1` [nilotinib] + Oc1cc(-c2nc(-c3ccccc3)[nH]c2-c2ccncc2)ccc1Cl [L779450] (first compound 0.2 µM, partner dose 0.2 µM), for which the cell count with WM115 is 80.9%; in the assay on WM1716, 108%; in the assay on WM1745 it was 94.1%; in the assay on WM3526, 85.6%; in the assay with WM3619 it was 113%; in the assay with WM451Lu, 107%.
As for `COc1ccc(C2=N[C@@H](c3ccc(Cl)cc3)[C@@H](c3ccc(Cl)cc3)N2C(=O)N2CCNC(=O)C2)c(OC(C)C)c1` [Nutlin-3] + NC1(c2ccc(-c3nc4ccn5c(=O)[nH]nc5c4cc3-c3ccccc3)cc2)CCC1 [MK2206] (first compound 0.1 µM, partner dose 0.4 µM), the cell count is 81.9% with WM115; 84.9% in the assay with WM1716; 89.6% in the assay with WM1745; 76.9% with WM3526; 88% with WM3619; 83.5% in the assay on WM451Lu.
Take `Cc1cn(-c2cc(NC(=O)c3ccc(C)c(Nc4nccc(-c5cccnc5)n4)c3)cc(C(F)(F)F)c2)cn1` [nilotinib] + CC(C)CCN1c2nc(Nc3cc(F)c(O)c(F)c3)ncc2N(C)C(=O)C1C [BID1870] (first compound 0.2 µM, partner dose 0.2 µM): the cell count in the assay with WM115 amounted to 103%; in the assay on WM1716, 105%; in the assay with WM1745 it was 84.9%; in the assay on WM3526, 103%; with WM3619 it was 113%; with WM451Lu it was 107%.
As for `Cn1c(=O)n(-c2ccc(C(C)(C)C#N)cc2)c2c3cc(-c4cnc5ccccc5c4)ccc3ncc21` + Cn1nnc2c(C(N)=O)ncn2c1=O [temozolomide] (first compound 0.004 µM, partner dose 2 µM), the cell count is 87.8% in the assay with WM115; 87.9% with WM1716; 95.2% in the assay with WM1745; 91.8% in the assay on WM3526; 96.2% with WM3619; 87.2% in the assay on WM451Lu.
As for `COc1ccc(C2=N[C@@H](c3ccc(Cl)cc3)[C@@H](c3ccc(Cl)cc3)N2C(=O)N2CCNC(=O)C2)c(OC(C)C)c1` [Nutlin-3] + O=c1cc(-c2cccc3c2Sc2ccccc2S3)oc(N2CCOCC2)c1 [KU55933] (first compound 0.1 µM, partner dose 1 µM), the cell count in the assay with WM115 came to 86.4%; in the assay with WM1716, 93.8%; in the assay on WM1745, 83.8%; in the assay with WM3526, 89.3%; with WM3619 it was 83.4%; in the assay on WM451Lu, 111%.
Take `COc1ccc(C2=N[C@@H](c3ccc(Cl)cc3)[C@@H](c3ccc(Cl)cc3)N2C(=O)N2CCNC(=O)C2)c(OC(C)C)c1` [Nutlin-3] + Cc1cc([N+](=O)[O-])ccc1NS(=O)(=O)c1cc(Cl)ccc1Cl [FH535] (first compound 0.1 µM, partner dose 1 µM): the cell count in the assay on WM115 was found to be 87.6%; with WM1716, 98.8%; in the assay on WM1745, 93.9%; in the assay on WM3526 it was 106%; in the assay with WM3619, 105%; in the assay with WM451Lu it was 99.5%.
On to `Cc1cc(Nc2cc(N3CCN(C)CC3)nc(/C=C/c3ccccc3)n2)n[nH]1` + O=C(O)C(=O)Nc1sc2c(c1C(=O)O)CCNC2 [TCS401] (first compound 0.04 µM, partner dose 1.66667 µM), for which the cell count with WM115 was determined as 98%; in the assay on WM1716, 118%; in the assay with WM1745, 87.2%; in the assay on WM3526 it was 82.3%; in the assay with WM3619, 85%; with WM451Lu, 83.8%.
Consider `Cn1c(=O)n(-c2ccc(C(C)(C)C#N)cc2)c2c3cc(-c4cnc5ccccc5c4)ccc3ncc21` + O=C(O)c1ccc2c(c1)nc(Nc1cccc(Cl)c1)c1ccncc12 [CX4945] (first compound 0.004 µM, partner dose 0.4 µM), for which the cell count with WM115 is 90.9%; in the assay with WM1716 it was 92.7%; in the assay with WM1745, 96.3%; in the assay with WM3526, 93%; in the assay on WM3619 it was 86.5%; in the assay on WM451Lu, 97.9%.
`Cc1cn(-c2cc(NC(=O)c3ccc(C)c(Nc4nccc(-c5cccnc5)n4)c3)cc(C(F)(F)F)c2)cn1` [nilotinib] + CN(NC(=O)CC(=O)NN(C)C(=S)c1ccccc1)C(=S)c1ccccc1 [STA4783] (first compound 0.2 µM, partner dose 0.006 µM): the cell count in the assay with WM115 amounted to 92.1%; with WM1716, 67%; in the assay with WM1745, 46.1%; in the assay on WM3526, 90.8%; in the assay with WM3619, 61.3%; in the assay with WM451Lu, 78.2%.
For `CC(C)C[C@H](NC(=O)[C@H](Cc1ccccc1)NC(=O)c1cnccn1)B(O)O` [Bortezomib] + COc1ccc(Cl)c(Nc2nc3ccccc3nc2NS(=O)(=O)c2cccc(NC(=O)C(C)(C)N)c2)c1 [XL147] (first compound 0.001 µM, partner dose 0.8 µM), the cell count was found to be 90.8% in the assay with WM115; 35% with WM1716; 64.9% in the assay with WM1745; 91% with WM3526; 24% in the assay with WM3619; 84.2% in the assay on WM451Lu.
As to `COc1ccc(C2=N[C@@H](c3ccc(Cl)cc3)[C@@H](c3ccc(Cl)cc3)N2C(=O)N2CCNC(=O)C2)c(OC(C)C)c1` [Nutlin-3] + Cc1cc(Nc2cc(N3CCN(C)CC3)nc(/C=C/c3ccccc3)n2)n[nH]1 [ENMD2076] (first compound 0.1 µM, partner dose 0.04 µM), the cell count in the assay with WM115 turned out to be 90.9%; in the assay on WM1716, 95.4%; in the assay with WM1745, 98.6%; in the assay with WM3526 it was 111%; with WM3619, 94.7%; with WM451Lu, 107%.
In the case of `CC(C)C[C@H](NC(=O)[C@H](Cc1ccccc1)NC(=O)c1cnccn1)B(O)O` [Bortezomib] + C[C@]1(c2nc3c(C(N)=O)cccc3[nH]2)CCCN1 [Veliparib] (first compound 0.001 µM, partner dose 1.4 µM), the cell count amounted to 74.3% in the assay on WM115; 50.3% in the assay with WM1716; 49.6% with WM1745; 102% in the assay on WM3526; 13.5% in the assay on WM3619; 75.6% with WM451Lu.
With `COc1ccc(C2=N[C@@H](c3ccc(Cl)cc3)[C@@H](c3ccc(Cl)cc3)N2C(=O)N2CCNC(=O)C2)c(OC(C)C)c1` [Nutlin-3] + N#Cc1c(O)c2c(-c3ccc(-c4ccccc4O)cc3)csc2[nH]c1=O [A769662] (first compound 0.1 µM, partner dose 2 µM), the cell count in the assay on WM115 was 96.1%; in the assay with WM1716, 96.3%; in the assay with WM1745, 90%; with WM3526, 103%; in the assay on WM3619 it was 132%; in the assay with WM451Lu it was 100%.
Take `COc1ccc(C2=N[C@@H](c3ccc(Cl)cc3)[C@@H](c3ccc(Cl)cc3)N2C(=O)N2CCNC(=O)C2)c(OC(C)C)c1` [Nutlin-3] + Oc1cc(-c2nc(-c3ccccc3)[nH]c2-c2ccncc2)ccc1Cl [L779450] (first compound 0.1 µM, partner dose 0.2 µM): the cell count came out at 70.7% in the assay on WM115; 106% with WM1716; 70% with WM1745; 63.9% in the assay on WM3526; 91.6% with WM3619; 96.6% with WM451Lu.
For `COc1ccc(C2=N[C@@H](c3ccc(Cl)cc3)[C@@H](c3ccc(Cl)cc3)N2C(=O)N2CCNC(=O)C2)c(OC(C)C)c1` [Nutlin-3] + Clc1ccc(Nc2nnc(Cc3ccncc3)c3ccccc23)cc1 [vatalanib] (first compound 0.1 µM, partner dose 2 µM), the cell count in the assay with WM115 was found to be 82.7%; with WM1716 it was 87.4%; in the assay with WM1745, 82.7%; in the assay on WM3526, 82.1%; in the assay on WM3619, 77.9%; with WM451Lu, 104%.
Consider `Cn1c(=O)n(-c2ccc(C(C)(C)C#N)cc2)c2c3cc(-c4cnc5ccccc5c4)ccc3ncc21` + O=C1NC(=O)/C(=C/c2ccc(-c3ccc(F)cc3O)o2)S1 [AS252424] (first compound 0.004 µM, partner dose 1 µM), for which the cell count in the assay on WM115 came out at 98.1%; in the assay with WM1716 it was 86%; in the assay with WM1745, 110%; in the assay with WM3526, 91.3%; in the assay on WM3619, 97.7%; in the assay on WM451Lu it was 115%.
`Cc1cc(Nc2cc(N3CCN(C)CC3)nc(/C=C/c3ccccc3)n2)n[nH]1` + COc1cc(N2CCC(N3CCN(C)CC3)CC2)ccc1Nc1ncc(Cl)c(Nc2ccccc2S(=O)(=O)C(C)C)n1 [NVP-TAE684] (first compound 0.04 µM, partner dose 0.08 µM): the cell count came out at 82.3% in the assay on WM115; 97.5% with WM1716; 78.8% in the assay on WM1745; 67.3% in the assay on WM3526; 94.8% in the assay on WM3619; 86.4% in the assay on WM451Lu.
`Cc1cc(Nc2cc(N3CCN(C)CC3)nc(/C=C/c3ccccc3)n2)n[nH]1` + Oc1nc(-c2ccc(C(F)(F)F)cc2)nc2c1CSCC2 [XAV939] (first compound 0.04 µM, partner dose 2 µM): the cell count worked out at 83.5% with WM115; 77.1% with WM1716; 79.6% with WM1745; 103% in the assay with WM3526; 99.9% in the assay on WM3619; 93.4% in the assay on WM451Lu.
For `Cc1cn(-c2cc(NC(=O)c3ccc(C)c(Nc4nccc(-c5cccnc5)n4)c3)cc(C(F)(F)F)c2)cn1` [nilotinib] + O=C1NC(=O)/C(=C/c2ccc(-c3ccc(F)cc3O)o2)S1 [AS252424] (first compound 0.2 µM, partner dose 1 µM), the cell count with WM115 was 108%; with WM1716 it was 94.6%; with WM1745, 98.3%; in the assay on WM3526 it was 93.9%; in the assay with WM3619 it was 99.1%; in the assay with WM451Lu, 134%.
For the compound `Cn1c(=O)n(-c2ccc(C(C)(C)C#N)cc2)c2c3cc(-c4cnc5ccccc5c4)ccc3ncc21` + CC1(C)NC(=O)N(c2ccc([N+](=O)[O-])c(C(F)(F)F)c2)C1=O [nilutamide] (first compound 0.004 µM, partner dose 1 µM), the cell count amounted to 83.4% in the assay on WM115; 72.7% in the assay on WM1716; 88.7% in the assay on WM1745; 94.3% with WM3526; 95.7% in the assay with WM3619; 85.5% with WM451Lu.
As to `COc1ccc(C2=N[C@@H](c3ccc(Cl)cc3)[C@@H](c3ccc(Cl)cc3)N2C(=O)N2CCNC(=O)C2)c(OC(C)C)c1` [Nutlin-3] + COc1cc2c(Oc3ccc4[nH]c(C)cc4c3F)ncnc2cc1OCCCN1CCCC1 [cediranib] (first compound 0.1 µM, partner dose 0.4 µM), the cell count in the assay with WM115 was 84.9%; in the assay with WM1716 it was 97.6%; in the assay on WM1745, 90.9%; in the assay with WM3526, 92.8%; in the assay with WM3619 it was 97.6%; in the assay with WM451Lu, 129%.
Regarding `Cc1cn(-c2cc(NC(=O)c3ccc(C)c(Nc4nccc(-c5cccnc5)n4)c3)cc(C(F)(F)F)c2)cn1` [nilotinib] + COc1cc2c(Oc3ccc4[nH]c(C)cc4c3F)ncnc2cc1OCCCN1CCCC1 [cediranib] (first compound 0.2 µM, partner dose 0.4 µM), the cell count was 116% in the assay on WM115; 97.7% in the assay with WM1716; 84% in the assay on WM1745; 116% in the assay on WM3526; 76% with WM3619; 94.4% in the assay on WM451Lu.
With `Cc1cc(Nc2cc(N3CCN(C)CC3)nc(/C=C/c3ccccc3)n2)n[nH]1` + OCc1c[nH]c2ccccc12 [Indole-3-carbinol] (first compound 0.04 µM, partner dose 0.8 µM), the cell count stood at 96.2% in the assay with WM115; 102% in the assay on WM1716; 94.9% with WM1745; 121% in the assay on WM3526; 86.4% with WM3619; 92.5% in the assay on WM451Lu.
Turning to `Cc1cn(-c2cc(NC(=O)c3ccc(C)c(Nc4nccc(-c5cccnc5)n4)c3)cc(C(F)(F)F)c2)cn1` [nilotinib] + Cc1cc(Nc2cc(N3CCN(C)CC3)nc(/C=C/c3ccccc3)n2)n[nH]1 [ENMD2076] (first compound 0.2 µM, partner dose 0.04 µM), the cell count came to 95.3% with WM115; 87.9% in the assay on WM1716; 84.1% with WM1745; 113% in the assay on WM3526; 113% in the assay on WM3619; 83.6% in the assay on WM451Lu.
